Test results from PubChem BioAssay AID720709 (National Center for Advancing Translational Sciences (NCATS), 2013).
Among all 360,000 compounds or so, about 520 (0.14%) were called active. Inconclusive results, whose numbers are uncertain, are shown with a selection of clear calls. The call rests on the fitted dose curve; in most records, active means well fitted inhibition curve with a large enough effect; inconclusive means small, poorly fitted or top-dose-only effect; inactive means no such curve, though single readings can be large or run the other way. Potencies of inconclusive entries are doubtful fits and often do not repeat.

molecular target: Rap guanine nucleotide exchange factor 3 (Homo sapiens) (UniProt O95398); assay: qHTS for Antagonist of cAMP-regulated guanine nucleotide exchange factor 3 (EPAC1): primary screen; conditions: EPAC1 GEF assay, Rap1b-BODIPY-GDP exchange fluorescence; series mostly up to 115 µM; further: nearly all actives have a fitted effect of over 50% in size
Potency means the concentration at half of the fitted maximal effect; tags describe the fitted curve by direction and shape.

UniProt O95398, sequence (O95398 whole entry, looked up): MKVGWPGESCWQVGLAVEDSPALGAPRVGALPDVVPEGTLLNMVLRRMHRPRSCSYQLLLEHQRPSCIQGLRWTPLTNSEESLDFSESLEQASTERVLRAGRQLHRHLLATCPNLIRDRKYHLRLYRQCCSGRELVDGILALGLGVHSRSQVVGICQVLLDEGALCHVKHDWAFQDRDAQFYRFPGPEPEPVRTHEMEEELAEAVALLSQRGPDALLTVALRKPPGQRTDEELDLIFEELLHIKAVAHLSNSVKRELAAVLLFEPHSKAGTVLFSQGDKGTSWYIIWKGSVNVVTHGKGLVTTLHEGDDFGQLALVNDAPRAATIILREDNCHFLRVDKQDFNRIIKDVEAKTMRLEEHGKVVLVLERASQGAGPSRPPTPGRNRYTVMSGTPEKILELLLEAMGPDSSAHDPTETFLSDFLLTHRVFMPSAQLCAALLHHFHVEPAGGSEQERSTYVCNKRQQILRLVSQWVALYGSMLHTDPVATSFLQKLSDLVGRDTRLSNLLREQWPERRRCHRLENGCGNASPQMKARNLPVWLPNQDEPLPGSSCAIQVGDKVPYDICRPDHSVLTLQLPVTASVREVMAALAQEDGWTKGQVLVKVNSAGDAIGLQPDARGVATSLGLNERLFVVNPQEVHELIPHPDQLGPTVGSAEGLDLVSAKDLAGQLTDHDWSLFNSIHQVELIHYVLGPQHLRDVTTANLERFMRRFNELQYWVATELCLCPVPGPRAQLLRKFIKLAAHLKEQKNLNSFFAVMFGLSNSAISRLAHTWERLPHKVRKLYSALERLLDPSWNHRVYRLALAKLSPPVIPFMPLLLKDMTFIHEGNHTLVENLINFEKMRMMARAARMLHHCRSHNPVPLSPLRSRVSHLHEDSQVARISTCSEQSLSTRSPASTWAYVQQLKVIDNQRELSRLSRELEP

Potency, inconclusive:
CN(C)C(CNC(=O)c1cc(-c2ccco2)nc2ccccc12)c1ccccc1 (centres undefined) 50.1 µM [inhibitor, partial curve], COc1ccc(-n2c(SCCNCCO)nc3sc4c(c3c2=O)CCCC4)cc1 56.2 µM [inhibitor, partial curve], COc1ccc(CCNC(=O)COc2ccc(S(=O)(=O)NCC(C)C)cc2Cl)cc1OC 39.8 µM [inhibitor, partial curve, poor fit], CCN(C[C@H]1N[C@@](C)(C(=O)OC)[C@H]2C(=O)N(Cc3ccccc3)C(=O)[C@@H]12)C(=O)c1ccccc1 39.8 µM [inhibitor, single point], C/C(=N\O)C(C)(C)Nc1ccc(F)cc1 7.94 µM [inhibitor, full curve, poor fit], COc1ccc(C(CC(=O)NCC(OC)OC)NS(=O)(=O)c2ccc(Cl)cc2)cc1 (centres undefined) 56.2 µM [inhibitor, partial curve, poor fit], Clc1ccccc1Cc1noc(CN2CCN3CCCC3C2)n1 (centres undefined) 39.8 µM [inhibitor, single point], CCC1C(=NO)C(CC)C(c2ccccc2)NC1c1ccccc1 (centres undefined) 50.1 µM [inhibitor, partial curve, poor fit], COc1ccc(-c2nc(CSCC(=O)N3CCN(C)CC3)c(C)o2)cc1OC 100 µM [inhibitor, single point], Cc1cccc(C(=O)OCC(=O)c2ccc(CC(=O)N3CCOCC3)s2)c1C 79.4 µM [inhibitor, single point], COc1cc(OC)cc(C(=O)Nc2sc3c(c2C(N)=O)CCC3)c1 35.5 µM [inhibitor, partial curve], NNc1nc2c(Cl)cccc2s1 28.2 µM [inhibitor, single point]

Potency, inactive:
COc1cccc(C(=O)NCCCNC(=O)c2cccc(OC)c2)c1, O=C(CN(CC1CCCO1)C(=O)CNS(=O)(=O)c1ccc(F)cc1)NCC1CCCO1 (centres undefined), C=CCOc1c(Cl)cc(CNc2ccc(N(C)C)cc2)cc1OC, CCOC(=O)C1(C)CCCN(C(=O)c2cccnc2)C1 (centres undefined), O=[S@]1Oc2ccccc2-c2ccccc21, Cc1ccc(C(c2nnnn2C(C)(C)C)N(Cc2ccco2)Cc2cccs2)cc1 (centres undefined)

Potency, active:
O=C(COc1ccc2ccccc2c1)Nc1cccc(C(=O)Nc2ccccc2C(=O)O)c1 44.7 µM
